Measured values: the antibiotic and cytotoxicity screens of Wong et al. (2023)
The list shows a part of the results.

Tested on: S. aureus RN4220
Test: growth inhibition call (relative growth <= 0.2)
Conditions: 50 µM

Growth inhibition call, inactive:
C[C@@H]1CN([C@@H](C)CO)C(=O)c2cc(NC(=O)Nc3ccc4c(c3)OCO4)ccc2O[C@H]1CN(C)Cc1ccc(Oc2ccccc2)cc1
O=C1CCOC[C@@H]2CCCN12
C[C@H](CO)N1C[C@H](C)[C@H](CN(C)C(=O)Nc2ccccc2)Oc2ccc(NC(=O)C3CC3)cc2CC1=O
CCCC(=O)Nc1ccc2c(c1)C(=O)N(C)C[C@@H](OC)[C@H](C)CN(S(=O)(=O)c1cn(C)cn1)[C@H](C)CO2
C[C@@H]1CN([C@H](C)CO)C(=O)c2cc(NC(=O)Nc3ccccc3)ccc2O[C@@H]1CN(C)Cc1ccc(C(=O)Nc2ccccc2N)cc1
C[C@@H]1CCCCO[C@@H](CN(C)CC2CCCCC2)[C@H](C)CN([C@@H](C)CO)C(=O)c2cc(NC(=O)Nc3ccccc3)ccc2O1
C[C@H](CO)N1C[C@H](C)[C@H](CN(C)S(=O)(=O)c2ccc(F)cc2)OCCCC[C@H](C)Oc2ccc(NC(=O)Nc3ccc(C(F)(F)F)cc3)cc2C1=O
O=C1C(NS(=O)(=O)c2ccc(Br)cc2)=C(c2ccc(OC(F)(F)F)cc2)C(=O)c2ccccc21
COc1ccc(S(=O)(=O)Nc2ccc3c(c2)C(=O)N([C@@H](C)CO)C[C@H](C)[C@@H](CN(C)S(=O)(=O)c2ccc(Cl)cc2)OCCCC[C@@H](C)O3)cc1
COc1ccc(S(=O)(=O)N(C)C[C@H]2Oc3ccc(NC(=O)CCCN(C)C)cc3C(=O)N([C@@H](C)CO)C[C@@H]2C)cc1
C[C@H](CO)N1C[C@H](C)[C@@H](CN(C)Cc2ccc(C(F)(F)F)cc2)OCCCC[C@H](C)Oc2ccc(NC(=O)C3CCCCC3)cc2C1=O
